According to PubChem BioAssay AID1345083 (National Center for Advancing Translational Sciences (NCATS), 2018):
Several values for one entry are separate records, joined by “and”; a condition that tells them apart may be missing. Equal entries are not always repeated. The whole screen tested about 94,000 compounds, of which about 6,200 (6.6%) were called active. This list was built around the results that the source calls inconclusive (neither active nor inactive); the mix of calls is not that of the screen. Calls follow the shape of the dose curve; as a rule, active = well fitted inhibition curve with a large enough effect; inconclusive = small, poorly fitted or top-dose-only effect; inactive = flat fitted curve, though single readings scatter. Potencies of inconclusive entries are doubtful fits and often do not repeat.

assay: Cytotoxic Profiling in HEK 293 Cell Line of Diverse Libraries Using Quantitative High-Throughput Screening; conditions: HEK 293 viability, ATP luminescence (CellTiter-Glo), 48-72 h; activity change, negative = cytotoxicity: at 115 µM (top of the series) unless noted; series mostly up to 115 µM; also: nearly all actives have a fitted effect of over 60% in size
Procedure, shortened: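 Luminescence from cellular ATP, measured with CellTiter-Glo, indicates HEK 293 viability. Cells plated at 250 cells/well are treated with compound for 48 or 72 hr at 37 degree Celsius before reagent addition.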
% is scaled to controls: 0 for no effect and ±100 for the full control effect; potency is read from the fitted curve at half-maximal effect; tags tell the direction and shape of the fitted curve.

Compound	Potency	activity change, negative = cytotoxicity
Cc1cnc(C(=O)N2CCc3onc(-c4ccc(F)c(F)c4)c3C2)cn1	inconclusive: 15.8 µM [inhibitor, partial curve, poor fit]	–
O=C(c1cccc(F)c1)N1CCC(CCOc2ccc(F)cc2)C1 (configuration not stated)	active: 44.7 µM	–
O=C1OC[C@@H]2CCN(Cc3ccc(Cl)cc3)Cc3ccc(F)cc3N12	inconclusive: 89.1 µM [inhibitor, partial curve]	–
O=C(c1ccccc1)N1CC2(Cc3ccccc3NC2=O)C1	–	inactive: -3.54% [at 172 µM]
CCC(C)NC(=O)CN1C(=O)NC2(CCC(C)CC2)C1=O (configuration not stated)	–	inactive: 6.55%
CCOc1ccccc1C(=O)N1CCN(c2cc(-c3ccc(Cl)cc3)[nH]n2)CC1	active: 35.5 µM	–
Cc1ccc(C(=O)N2CC[C@H](c3n[nH]c(C)n3)[C@H](NC(=O)C3CCOCC3)C2)cc1	inconclusive: 15.8 µM [inhibitor, full curve, poor fit]	–
CCOc1ccccc1CN1CCC2(CCN(C(C)=O)CC2)Oc2ccccc21	inconclusive: 89.1 µM [inhibitor, single point]	–
CCOc1ccc(-c2cc3c(=O)n(CC(O)c4ccc(C(C)C)cc4)ccn3n2)cc1 (configuration not stated)	–	inactive: 5.52%
CC1(c2ccccc2)N(Cc2ccccc2C#N)C(=O)OC12CCN(CCc1ccccc1)CC2 (configuration not stated)	inconclusive: 79.4 µM [inhibitor, partial curve, poor fit]	–
CCC1Oc2ccc(NC(=O)c3ccccc3Cl)cc2CN(Cc2ccccc2F)C1=O (configuration not stated)	inconclusive: 39.8 µM [inhibitor, partial curve, poor fit]	–
Cc1c(C(=O)N2CCn3nc(CO)cc3C2)cnc2cc(=O)[nH]n12	–	inactive: -28.9%
O=[S+]1([O-])[C@@H](c2ccccc2)[C@H](COCc2ccccc2)CN1c1ccccc1	–	inactive: -29%
O=C(Nc1ccc(F)cc1)c1ccc2c(c1)OCCN(C1CCC1)C2	inconclusive: 8.91 µM [inhibitor, full curve, poor fit]	–
C=CCNC(=O)N1[C@@H](c2ccccc2)[C@@H](C(=O)OCC)C[C@]12CCCCN(CCOC)C2=O	–	inactive: -11.3%
CS(=O)(=O)c1ccc(CN2CC[C@@H](c3ccc4ccccc4c3)[C@H](O)C2)cc1	active: 39.8 µM	–
COc1cc(OC)cc(-c2onc(C)c2C(=O)NCCCCc2ccccc2)c1	inconclusive: 50.1 µM [inhibitor, partial curve, poor fit]	–
COc1cccc(-c2ccc(CN3CCCC3C(=O)N3CCN(c4ncccn4)CC3)cc2)c1 (configuration not stated)	inconclusive: 79.4 µM [inhibitor, partial curve, poor fit]	–
CN(Cc1cn(C)c2ccccc12)C1CCc2nn(CC3CC3)c(=O)n2CC1 (configuration not stated)	active: 31.6 µM	–
O=C(c1ccccc1)N1CCC(NCCOc2ccccc2F)CC1	–	inactive: -5.37%
CC(=O)NC(C)c1nnc2n1CCN(C(=O)c1ccccc1)C2 (configuration not stated)	–	inactive: -9.29% [at 172 µM]

Compound	Potency	activity change, negative = cytotoxicity
O=C(NCc1nnc2ccc(-c3ccccc3)nn12)c1cc(Cl)ccc1F	inconclusive: 44.7 µM [inhibitor, partial curve, poor fit]	–
CN(Cc1ccc(F)cc1)Cc1ccc(-c2ccccc2)cc1	–	inactive: 0.425% [at 172 µM]
CCOc1ccc(CN2CC(Oc3ccccc3C(=O)NCc3ccccc3)C2)cc1	active: 20 µM	–
O=C(C1CCC1)N1CCC(Oc2cccc(F)c2)C1 (configuration not stated)	–	inactive: -2.78%
Cc1ccc(C(=O)N2CCCCC2c2nc(-c3ccccc3)n[nH]2)cn1 (configuration not stated)	inconclusive: 100 µM [inhibitor, single point]	–
CCOc1ccccc1NC(=O)N1CC[C@H]2COC(=O)N(Cc3ccccc3)[C@H]2C1	–	inactive: -4.57%
O=C1NC(=NC2CCCC2)C2(CCCN([S+](=O)([O-])c3cccc(C(F)(F)F)c3)C2)N1c1cc(F)cc(F)c1 (configuration not stated)	inactive and inconclusive: 50.1 µM [inhibitor, partial curve, poor fit]	–
Cc1cc(C)cc(C(=O)N2CCCN(C)c3ccccc32)c1	active: 39.8 µM	–
O=C(NCc1nnc2ccc(-c3ccccc3)nn12)c1ccccc1Cl	inconclusive: 79.4 µM [inhibitor, partial curve, poor fit]	–
Cc1cccc(C(C(=O)N2CCC(CCn3ccnc3C)CC2)N(C)C)c1 (configuration not stated)	inconclusive: 50.1 µM [inhibitor, partial curve, poor fit]	–
COc1cccc(-c2cc(C(=O)NCc3cccc(C(F)(F)F)c3)c3cnn(C)c3n2)c1	active: 25.1 µM	–
CC(C)C[C@@H]1N[C@H](C(=O)NC2CCC2)Cc2cn(Cc3nccn3C)c3cccc1c23	inconclusive: 50.1 µM [inhibitor, full curve, poor fit]	–
CN1C(=O)C2(CCN(C(=O)c3ccn(C(C)(C)C)c3)CC2)c2ccccc21	inconclusive: 56.2 µM [inhibitor, partial curve, poor fit]	–
CCOC(=O)C(C)N1CCOc2c(O)cc(-c3cccc(Cl)c3)cc2C1 (configuration not stated)	active: 44.7 µM	–
COCCN1CCCN(C(=O)c2cccc(Cl)c2)c2ccccc21	active: 44.7 µM	–
CS(=O)(=O)Nc1ccc(C2(C(=O)NCC3CCCCC3)CCCCC2)cc1	inconclusive: 89.1 µM [inhibitor, single point]	–
CN1CCc2c([nH]c3ccccc23)C12CCN(S(=O)(=O)c1cccnc1)CC2	inconclusive: 56.2 µM [inhibitor, partial curve, poor fit]	–
O=C1NCCCCCCN(Cc2ccncc2)[C@@H]2CN(S(=O)(=O)c3ccc4c(c3)CCC4)CC[C@H]12	inconclusive: 56.2 µM [inhibitor, partial curve, poor fit]	–
O=C(Nc1nccs1)C1CC(=O)N(c2n[nH]c3cccc(F)c23)C1 (configuration not stated)	inconclusive: 89.1 µM [inhibitor, single point]	–
CCNC(=O)OC1CN(C(=O)c2ccc(C(F)(F)F)cc2)CCC(=O)N(C)c2ccccc21 (configuration not stated)	inconclusive: 39.8 µM [inhibitor, single point]	–
CCOC(=O)C1CCCCN1C(=O)c1cn(C(c2ccccc2)c2ccccc2)nn1 (configuration not stated)	inconclusive: 79.4 µM [inhibitor, partial curve, poor fit]	–
